# From PubChem BioAssay AID588795 (National Center for Advancing Translational Sciences (NCATS), 2011)
# Hit rate of the full screen: of about 390,000 compounds, about 1,400 (0.36%) were called active. The inconclusive results got no clear call from the source; some entries with a clear call stand among them for comparison. Calls come from the whole dose curve; as a rule, active = well fitted inhibition curve with a large enough effect; inconclusive = small, poorly fitted or top-dose-only effect; inactive = no such curve, though single readings can be large or run the other way. Where the call is inconclusive, the potency comes from a doubtful curve fit.
# Target: Flap endonuclease 1 (Homo sapiens) (UniProt P39748)
# Assay: qHTS Assay for the Inhibitors of Human Flap endonuclease 1 (FEN1). Note: nearly all actives have a fitted effect of over 65% in size.
# Settings: Recombinant FEN1 flap cleavage, fluorescence, 15 min; series mostly up to 114 µM; activity change, negative = inhibition: at the top concentration
# Method in brief: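 Read-out was taken twice, immediately and after 15 min, following addition of 50 nM substrate to 10 nM FEN1 that had sat with test compound for 15 min at room temperature. Curves came from a four-parameter Hill model.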
# % is set by controls: 0 for no effect and ±100 for the full control effect; potency is the fitted concentration of half-maximal effect; tags give direction and shape of the fitted curve.
# Sequence of UniProt P39748 (P39748 whole entry, looked up): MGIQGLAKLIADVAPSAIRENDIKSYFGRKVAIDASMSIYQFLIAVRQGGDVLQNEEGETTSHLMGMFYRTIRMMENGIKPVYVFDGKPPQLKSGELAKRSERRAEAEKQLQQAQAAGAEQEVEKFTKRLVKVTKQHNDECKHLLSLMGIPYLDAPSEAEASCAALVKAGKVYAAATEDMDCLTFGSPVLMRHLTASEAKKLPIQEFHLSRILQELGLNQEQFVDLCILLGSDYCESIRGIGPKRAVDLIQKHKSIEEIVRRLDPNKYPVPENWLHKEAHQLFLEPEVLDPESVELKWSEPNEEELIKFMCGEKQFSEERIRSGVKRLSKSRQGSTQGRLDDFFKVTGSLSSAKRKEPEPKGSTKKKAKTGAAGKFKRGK
Compound,"activity change, negative = inhibition",Potency
COc1ccc(NC(=O)Nc2sc(NS(=O)(=O)c3ccccc3)nc2C)cc1,inactive: 4.32%,–
O=C(CCS(=O)(=O)c1ccccc1)Nc1ccc(-c2nc3ccccc3s2)c(O)c1,inactive: 8.44%,–
Oc1ccc[n+](CC(O)c2ccccc2)c1 (centres undefined),–,"inconclusive: 89.1 µM [inhibitor, partial curve, poor fit]"
CC[C@]12c3[nH]c4cc(CCC(=O)N(C)C)ccc4c3CCN1C(=O)[C@@H](CC(=O)NCCCN(C)C)C[C@@H]2C(=O)N1CCN(C(=O)C2CC2)CC1,inactive: -0.0273%,–
O=C(/C=C\Nc1ccc2c(c1)OCO2)c1ccccn1,–,"inconclusive: 100 µM [inhibitor, single point]"
CSc1nc(=S)cc(C)[nH]1,inactive: -13%,–
CC(=O)c1cccc(OCC(=O)N(C)CC(=O)NCc2ccco2)c1,–,"inconclusive: 89.1 µM [inhibitor, single point]"
O=C(Nc1ccc(Nc2ccncc2)cc1)c1ccc(Nc2ccnc3ccc([N+](=O)[O-])cc23)cc1,–,"inconclusive: 0.282 µM [inhibitor, partial curve, poor fit]"
O=[N+]([O-])c1cc([N+](=O)[O-])c2nonc2c1Nc1ccc(O)cc1,–,"inconclusive: 28.2 µM [inhibitor, partial curve, poor fit]"
CC(N)=O,–,"inconclusive: 37.7 µM [inhibitor, single point]"
O=C(C[N+]12CCCc3cccc(c31)CCC2)c1ccccc1,–,"inconclusive: 31.6 µM [inhibitor, partial curve, poor fit]"
CCc1cccc(NC(=O)C2CCCN(S(=O)(=O)c3cccs3)C2)c1 (centres undefined),–,"inconclusive: 79.4 µM [inhibitor, partial curve, poor fit]"
COc1cc(-c2cc(=O)c3c(C)cc(O)cc3o2)cc(OC)c1OC,inactive: -17.6%,–
O=C(COC(=O)c1ccc([N+](=O)[O-])o1)Nc1cccc(S(=O)(=O)N2CCOCC2)c1,–,active: 28.2 µM
Nc1ccc(N2CCCCC2)c2nonc12,–,"inconclusive: 2.82 µM [inhibitor, full curve]"
CCCCCCSc1cc(-c2nc3ccc(C)cn3c2NCCCC)ccc1OC,–,"inconclusive: 89.1 µM [inhibitor, single point]"
Cc1nc2c(C(=O)NCCc3ccc(Cl)cc3)c[nH]n2c(=O)c1Cc1ccc(Cl)cc1,–,"inconclusive: 25.1 µM [inhibitor, partial curve, poor fit]"
COc1ccc(N2C(=O)C(CC(N)=O)N(NC(=O)CCc3ccccc3)C2=O)cc1 (centres undefined),inactive: -0.0484%,–
CC(C)CCn1c(=O)c2sccc2n2c(CCCC(=O)NC(C)C)nnc12,inactive: 3.35%,–
Cc1c(C)c2ccc(OCC(=O)Nc3ccc(S(N)(=O)=O)cc3)c(C)c2oc1=O,–,"inconclusive: 89.1 µM [inhibitor, partial curve]"
CNc1c2cccc(C)c2nc2c(C(=O)NCCN(C)C)cccc12,–,active: 2.82 µM
COCc1cc(C)n(CC(=O)N/N=C/c2ccc(-c3ccc(Cl)c(C(=O)O)c3)o2)c(=O)c1C#N,inactive: 4.63%,–

Compound,"activity change, negative = inhibition",Potency
COc1cc(OC)c2c(c1)C(=O)OC2c1cc(OC)c(OC)cc1C (centres undefined),inactive: 1.21%,–
CC(C(=O)Nc1ccccc1)C(=O)Nc1ccccc1,inactive: -0.0454%,–
O=C(/C=C/c1cc[n+](CC(=O)c2ccc3cccc4c3c2CC4)cc1)c1ccc2cccc3c2c1CC3,–,"inconclusive: 50.1 µM [inhibitor, partial curve, poor fit]"
CCOc1ccc(-c2cc(C(=O)N3CCN(S(=O)(=O)c4cc(Cl)ccc4OC)CC3)[nH]n2)cc1,inactive: -20.5%,–
CCOc1[nH]c(/N=C/c2ccco2)c(C#N)c1C#N,–,inactive
CCn1c2ccccc2c2cc(/C=N/n3cnnc3)ccc21,–,"inconclusive: 50.1 µM [inhibitor, partial curve]"
O=S(=O)(NC1CCCCC1)c1cccc(-c2nnc(-c3ccccc3)o2)c1,inactive: -10.1%,–
CC1=NN(C(N)=S)C(=O)C1N=Nc1c(Cl)cc([N+](=O)[O-])cc1Cl (centres undefined),inactive: -4.21%,–
COc1cccc(-c2nc(NC(C)C)c3ccccc3n2)c1O,–,"inconclusive: 50.1 µM [inhibitor, partial curve, poor fit]"
COc1ccc(N2CCN(C(CNC(=O)C(=O)NCCc3ccccc3)c3cccnc3)CC2)cc1 (centres undefined),inactive: -3.48%,–
Cc1c(OCC(=O)N[C@@H](Cc2c[nH]c3ccccc23)C(=O)O)ccc2c1oc(=O)c1ccccc12,–,"inconclusive: 79.4 µM [inhibitor, single point]"
CCc1ccc(C2C(C#N)=C(N)C(C#N)(C#N)C3=CCC(C(C)(C)C)CC32)cc1 (centres undefined),–,"inconclusive: 79.4 µM [inhibitor, partial curve, poor fit]"
CC(=O)Nc1ccn(C2OC(C(COC(C)=O)NC(=O)C(COCc3ccccc3)NC(=O)OC(C)(C)C)C(OC(C)=O)C2OC(C)=O)c(=O)n1 (centres undefined),inactive: 3.7%,–
O=[N+]([O-])c1ccc(C=NNC(=S)NN=Cc2ccc([N+](=O)[O-])cc2)cc1,–,"inconclusive: 89.1 µM [inhibitor, single point]"
COc1ccc(C=NNC(=S)NN=Cc2ccc(OC)c(OC)c2)cc1OC,–,"inconclusive: 31.6 µM [inhibitor, partial curve, poor fit]"
COc1ccc(OC)c(Nc2nc(-c3c(C)nc4ncccn34)cs2)c1,–,"inconclusive: 12.6 µM [inhibitor, full curve, poor fit]"
COc1ccc(-n2c(=O)c3c(c4cc(OC)ccc4n3C)n(Cc3cc(C)ccc3C)c2=O)cc1,inactive: 18.4%,–
CCc1ccc2nc3nc(C)cc(C)c3c(N)c2c1,–,"inconclusive: 50.1 µM [inhibitor, partial curve]"
CC(C)c1ccc(OCC(=O)Nc2cccc(C(=O)Nc3ccccc3C(=O)O)c2)cc1,inactive: 2.9%,–
Cc1ccccc1/C=C1\SC(=S)N(/N=C/c2cc([N+](=O)[O-])ccc2O)C1=O,–,"inconclusive: 79.4 µM [inhibitor, partial curve, poor fit]"
CC(NC(=O)COc1ccccc1-c1ccccc1)c1ccccc1 (centres undefined),–,"inconclusive: 7.94 µM [inhibitor, partial curve, poor fit]"
CN1C(=O)/C(=C/c2cccc(Cl)c2)Sc2ccc(C(=O)N3CCOCC3)cc21,–,"inconclusive: 89.1 µM [inhibitor, partial curve, poor fit]"
